The results in this text go back to the RNAGym collection of RNA variant scans (doi:10.7554/elife.90254).

The source gives no read counts; variants with many changes may rest on few reads.

B1: OR4K15 (parent)
chain: GUUAACGGUCAUAGGCCAUGGAAACUAGGAGCACCAUUUCGCUGCCAGUGAAGAAAUGAACAAAGAAAAUCUGGGCCAGGCAGGCAUCAAAAGAAAUAGUCUUGCGCUCAACCAGAAAGUCUGUAAUCAUUUUAAGGGUA

The variants in this data set derive from B1. Kind of data set: self-cleavage, relative activity (ratio to wild type); higher = more cleavage; in vitro, sequencing; the parent is a self-cleaving ribozyme.
Turning to A5G A55G A66G, the self-cleavage is 0.67.

On to A5G C17U A82G, for which the self-cleavage stood at 0.74.

On to A5G U37G A47G U124C U131C, for which the self-cleavage came out at 0.37.

Take A5G A51U U72A A92G: the self-cleavage was determined as 0.15.

For A5G G15A U19A, the self-cleavage was 1.02.

For the variant A5G A63U A69G A94G, the self-cleavage came to 0.76.

With A5G C40A U133C, the self-cleavage amounted to 0.23.

For A5G A59U U108G A117G U132C, the self-cleavage is 0.01.

Regarding A5G A24G U70A U122C, the self-cleavage is 0.93.

Consider A5G A24G U26A A92G, for which the self-cleavage came out at 1.57.

Take A5U U9C U37C A68G A110U A117G A118G U122C: the self-cleavage is 0.49.

With A5U A66G C101U, the self-cleavage was found to be 0.13.

With A5U G53U A54G A82G, the self-cleavage was determined as 1.05.

As to A5G A22U G31A C42A A90G, the self-cleavage is 0.78.

As for A5G A62G U108A, the self-cleavage is 0.05.

Consider A5G G41U A52G A89U A140G, for which the self-cleavage was 1.09.

A5G U12A U19C A24G U70C: the self-cleavage is 1.44.

As to A5G U19C A24G A90G A95U, the self-cleavage was 1.02.

For the variant A5U A52G A129G, the self-cleavage came to 0.63.

As for A5G A91G A110C, the self-cleavage was found to be 0.19.

Turning to A5U A22U A82G A111G C113U, the self-cleavage stood at 0.14.

Take A5G U37C G73A U103C U108C: the self-cleavage stood at 0.01.

A5G A18G A54G U102C A126C: the self-cleavage was determined as 0.77.

Consider C6A U72C U87C U130A, for which the self-cleavage came to 0.1.

With A5G A69G A82U, the self-cleavage stood at 0.28.

As to A5G U19C A68U G79A, the self-cleavage worked out at 0.11.

Consider A5U A60G A135G, for which the self-cleavage was 1.38.

As for A5G U39C A55G, the self-cleavage was found to be 1.49.

As to A5G A22G A117G U139C, the self-cleavage was found to be 1.64.

With A5U A22G U43C A68G A69G, the self-cleavage turned out to be 0.69.

Consider A5G U87C A118G, for which the self-cleavage is 0.74.

With A5G U12C A52G A69G, the self-cleavage was found to be 0.85.

For the variant A5G A82G U132C, the self-cleavage came to 0.65.

For A5G A67G U132A, the self-cleavage was 0.74.

For the variant A5G U38C A54U U100C U103C, the self-cleavage amounted to 2.01.

In the case of A5G A18G U131C, the self-cleavage was 0.78.

C6U A47C U122C: the self-cleavage came to 1.23.

As to A5G U19C A68U, the self-cleavage worked out at 1.34.

With A5G A18U A33G, the self-cleavage was 0.57.

As to A5G G44A A55U G75A A116G A126G, the self-cleavage came to 0.04.

On to A5G A55G A60G A66G U127C, for which the self-cleavage was determined as 0.74.

On to A5G A22G U70C C101A A116U, for which the self-cleavage came out at 0.14.

C6A C45A A86G A111G A135U: the self-cleavage amounted to 0.01.

Take A5G U49A A66G: the self-cleavage is 1.21.

As for C6U A66G U108C A118G, the self-cleavage stood at 0.

As for A5G A18G U19C A96G U120G, the self-cleavage amounted to 2.2.

Regarding C6U U9C A66G A92U A140G, the self-cleavage was determined as 2.07.

Regarding A5G U39C A59U, the self-cleavage was determined as 1.47.

In the case of A5G U9A A51C, the self-cleavage is 1.64.

Consider A5U U9C A24G A47G A62U A94G, for which the self-cleavage is 0.15.

Regarding A5G A24G C46A U49C U124A, the self-cleavage amounted to 0.5.

Regarding A5G A62U A66G A68G A78G, the self-cleavage was found to be 0.39.

Consider A5U A13U A60C U120C, for which the self-cleavage was 0.5.

Turning to A5G A117G U120G, the self-cleavage came to 1.87.

Turning to A5G A18U U19C, the self-cleavage is 0.71.

On to A5G U57A A92G, for which the self-cleavage stood at 0.42.

In the case of A5G A24G U38G A56U A60G A111C, the self-cleavage amounted to 0.07.

In the case of C6U C10U U39A A82U, the self-cleavage was found to be 0.07.

For A5G A24C A94G, the self-cleavage amounted to 1.14.

For A5G U100G U120A, the self-cleavage turned out to be 2.46.

Consider A5G A22G A60G U124C, for which the self-cleavage was 0.62.

In the case of A5G A66G A82G A94C U108C, the self-cleavage came out at 0.06.

C6U A23U A59G A68G: the self-cleavage worked out at 0.65.

As to A5U G14A U39C U103A C121A, the self-cleavage is 0.84.

Consider A5G A67G A89U A91G A134U, for which the self-cleavage stood at 1.11.

For A5G A51U A125G, the self-cleavage worked out at 0.57.

As to A5G A24G A54U A56G A86G, the self-cleavage stood at 0.57.

As to A5G A33U A134U, the self-cleavage is 1.72.

Regarding A5U A11G U19A A94G, the self-cleavage stood at 1.78.

As for A5G U19C U38G, the self-cleavage came to 0.47.

Take A5G U122C U127G: the self-cleavage was 2.

A5G A33G A59G A82U: the self-cleavage stood at 0.19.

In the case of A5G A56G G75U A95G, the self-cleavage amounted to 0.11.

Regarding A5G A60G G75A A98G, the self-cleavage was 0.17.

A5G U57A A78G A117G U127C U130C: the self-cleavage amounted to 0.1.

With C6U A92G U97C, the self-cleavage turned out to be 1.16.

In the case of A5G U43G A52G A62G U87C, the self-cleavage is 0.51.

With C6U C34A A66G A89G A129U, the self-cleavage was 0.67.

As to A5G G41A U100C, the self-cleavage was 1.93.

Consider A5G A64G U87C A91G, for which the self-cleavage came to 0.41.

As for A5G C81A A91G, the self-cleavage was determined as 0.17.

For A5G U87C U127A, the self-cleavage came to 1.74.

On to A5G A69G A134G, for which the self-cleavage turned out to be 1.58.

Turning to A5G A98U A118G, the self-cleavage came out at 1.33.
